# Test results taken from PubChem BioAssay (NCI).
# Some structures have more than one record in an assay (separate samples or runs), and their calls can disagree.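 Single-concentration screen, 48 h exposure, 96-well plates. Endpoint: percent growth. Below 10 = active.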 The source holds more than one record for some entries. This list holds those alone. The source may hold further records. For part of these data: These are repeated runs of one drug, at the concentration stated with the values; one value stands for one run. Brackets with × count equal records among those shown. Entries with a single value are a further part of the results. Active and inactive are the calls of the source.
# Experiments:
# NCI/ADR-RES ovarian = assay: NCI-60 one-dose screen, 48 h (100 = growth as untreated, 0 = no growth, -100 = all killed); settings: 25 µM
# T-47D breast = assay: as above; settings: 0.25 µM
structure (smiles),measurement,setting,value
COc1cccc2c1C(=O)c1c(O)c3c(c(O)c1C2=O)C[C@@](O)(C(=O)CO)C[C@@H]3OC1CC(N)C(O)C(C)O1 (stereo not given in full),growth,NCI/ADR-RES ovarian; runs of 1998,"inactive: 36.1, 15.7, 12.8, 24.6, 68.8, 42.1, 39.1, 23.9, 28.6, 28.8, 19.2, 29.6, 62.5, 40.1, 27.9, 55, 32.6, 46.5, 26.8, 41.7, 28.4, 36, 22, 31.9% and active: -25%, -6.44%, -5.04%"
same,growth,NCI/ADR-RES ovarian; runs of 1999,"inactive: 58.8, 48.5, 52.4, 22.2, 44.6, 26.4, 16.9, 11.2% and active: -67.9, 4.51, 6.75, 5.93, 7.28, 5.29, -24.8, 2.94%"
same,growth,NCI/ADR-RES ovarian; runs of 2000,"active: 0.303, -4.78, 7.21, 1.81%"
same,growth,T-47D breast; runs of 2006,inactive: 11.8%
same,growth,T-47D breast; runs of 2007,"inactive: 16.3, 27.8, 22.2, 20.7, 26.5, 38.9, 31.7 (3×), 35.1 (2×), 34.8 (2×), 54.3, 41.7, 29.8, 33.7, 24.9, 20.1, 36.8, 47.6, 38.8, 32.9, 25.1 (2×), 27.9 (2×), 41.2, 43.8, 30.8, 25.4, 24.6, 25.3, 61.3, 60.4, 23.3, 16.7, 23.5, 34.9% and active: 2.2%, 9.94%"
same,growth,T-47D breast; runs of 2008,"inactive: 26.4, 23, 23.2 (2×), 12.9 (3×), 18.4, 45.7, 35.3, 30.5, 35.6, 36.7, 31.2, 20 (2×), 16.1 (2×), 21, 16.8, 18.5, 15.8, 82.4, 10.6, 15.3, 13.3, 16.7, 18.9, 25.8, 24.6, 17.2, 12.5, 15.6, 33.3, 14.9, 19, 20.4, 17.6, 31.6% and active: 7, 7.6, 6.22, 4.51, 7.91, 5.27, -6.29, -5.91, 8.8, 2.65, 8.56%"
same,growth,T-47D breast; runs of 2009,"inactive: 32.9, 23.6, 22.1 (2×), 16.4, 17.6, 17.5, 22, 29.4, 17.7, 20, 21.9, 31.4, 12.2, 26.8, 23.2 (2×), 23.5, 11.5, 16.5, 27.5, 13.4, 19.5, 23.8 (2×), 28.9, 30.4, 19.1, 10.5, 13, 39.5, 26.1, 10.6, 18.8 (2×), 30.5, 21.7, 30.8, 23.1, 11.3, 13.3, 12.8, 13.6, 15.6, 16.6, 20.7, 14.7, 19.6, 18.7, 15.1, 11.8, 20.2 (2×), 31.7, 27.1 (2×), 14.1, 10.2, 25.6, 23.3, 43.6, 33.4, 16.8% and active: 6, -6.43, 7.05, 9.29, 9.38, 8.66, 9.32%"
same,growth,T-47D breast; runs of 2010,"inactive: 29.8, 30.5 (2×), 27.9, 18.5, 30.3, 41.8, 33.4, 33.7, 38, 35.7, 38.3, 24.1, 16.6, 25.1 (2×), 25.7, 20.2, 21, 20.7, 20.8, 21.9, 24.8, 22.8, 24.9, 21.5, 24.5, 36.9, 41.4, 21.3, 18.6, 35.2, 28.1, 39.2 (2×), 37.3, 40.6, 41.3, 33.9 (2×), 35.4, 30.8, 43.5, 41.9, 40.1, 41.1, 36.7, 27.4, 50.6, 48.4, 50.7% and active: 7.99%"
same,growth,T-47D breast; runs of 2011,"inactive: 38.7, 43.6, 35.1, 33.2 (2×), 44.2, 50.4, 38.8, 43.5, 35.4, 38.3, 58.2, 46.1, 51.7, 37.9, 56.2, 41.4, 20.8, 41.8, 39.7, 46.8, 37.1, 31.6, 44.7, 49.1, 45.1, 26.7, 47.1, 26.4, 40.2, 31.2, 31.4, 13.2, 28.1, 29, 24.9, 27.7, 21.3, 20.5, 21.6, 34.8, 28.8, 40.1, 32.9, 30.5, 33.5, 26.6, 30.3, 28.3, 36.1 (2×), 37.7, 37.6, 35.2, 28.9%"
same,growth,T-47D breast; runs of 2012,"inactive: 33.3, 31.1, 39.8, 36.2, 58.3, 66.7, 39.5, 30.6, 36, 32.8, 37.2, 40.5 (2×), 20, 28.8, 32.7, 30, 28.2, 27.6, 28.5, 35.8, 46.5, 46, 46.9, 37.9, 39, 30.4, 44.5, 37.5, 31.5, 42.5, 38.4, 44.4, 41.9, 37.4, 42.4, 54.6, 39.2, 42.6, 49.3, 54.3, 57.8, 53.3, 62.1, 44.7, 50.5, 53.8, 54.7, 50.8, 36.7, 59.6, 57.4, 55.5, 65.2, 31.3, 27.9, 34.2, 30.5, 36.3, 39.4, 38.6, 35.2, 42, 35.5, 34.4, 33.4% and active: -2.07%"
same,growth,T-47D breast; runs of 2013,"inactive: 34.5 (3×), 36.8, 13.8, 15.6, 44.2 (2×), 42.7, 35.5, 35.6 (2×), 37.3, 38.2, 39.4 (2×), 47.4, 35.1, 32.8, 36 (2×), 32.1, 36.6, 42.4, 34.3, 46.1 (2×), 42, 54.8, 41.1, 41.9, 42.8, 42.1 (3×), 38.7 (2×), 36.2, 48.7, 38.5, 40 (2×), 39.7, 37.6, 31.3, 30.6, 35 (2×), 40.1, 50.4, 39.9, 41.7, 39.8, 39.1, 39, 27.8 (2×), 28.3, 20.8, 24.2, 16.8, 15.5, 19.3, 31.4, 20.2, 26.5, 32.4, 27, 23, 21.8%"
same,growth,T-47D breast; runs of 2014,"inactive: 31.9, 38, 16.3, 19.7 (2×), 14.7, 20.5, 14.8, 50.8, 26.7 (2×), 22.8, 33.6, 42.6, 24, 28.2 (2×), 29 (2×), 26.8, 36.2, 28.7 (2×), 26.5, 23.6, 29.4, 29.5, 31.7, 27.6, 30, 37.4, 36.9, 34.3, 22.4, 26.6 (2×), 26.4, 32.8, 28.8 (2×), 24.9 (2×), 29.1, 11.2, 20.3, 36.3, 35.6, 21.1, 25.6, 15.1, 15.8, 31 (2×), 17.4, 27.7, 28.6, 23.1, 22.3, 23, 28.9, 24.6, 27.2, 16.7, 23.4, 20.1, 24.8, 19.5, 19.8%"
same,growth,T-47D breast; runs of 2015,"inactive: 28.9, 31.1, 33.3 (2×), 34.8, 24.5, 33.2, 29.8, 30.8, 23 (4×), 16.4 (2×), 20.9 (2×), 17.6, 16.6, 36.1, 14, 19.6, 21.8, 12.2, 37.2 (2×), 25.4, 25.6, 27.7, 24.4, 41.2, 19.5 (2×), 31, 43.5, 23.2, 34.1, 41.3, 33.4, 23.3, 25.7, 29.4, 14.8 (2×), 27.1, 37.5, 20.5, 22.8 (2×), 31.6 (2×), 18.9, 21, 28.7 (2×), 31.3, 21.3, 19, 36.6, 45.6, 33.7, 22.6, 17.9, 19.4, 24.2, 36.2, 30.6, 28 (2×), 25.3, 32, 40.5, 33.8, 27.5, 32.5, 39.1, 39.4, 18.3, 38.8, 30.4, 46.4% and active: 7.22%, 7.68%"
same,growth,T-47D breast; runs of 2016,"inactive: 33.9, 30.4, 20.8, 27.9 (2×), 38.6, 33.7, 21.6, 20.1, 21.1, 32.9, 28.1, 31.3, 20.6, 23.6, 26.4, 13.8 (2×), 15.8, 12.7, 23.3, 24.1 (2×), 24.5 (2×), 20.4, 27, 25.2, 20.9, 19.5, 33.4, 24.2 (2×), 30.6, 29.5, 37.1, 37.3, 35.1, 37.2, 30.3, 40.9, 33.5, 36.9, 39.9, 31.6, 41.2, 25.9, 30 (2×), 27.4 (2×), 32.8, 28.8, 26.1, 28.9, 22.3, 32.1, 31.7, 31.4 (2×), 41.3, 33.2, 42.5, 34 (2×), 46.3, 39.1, 37.5 (2×), 40.6, 38.3, 38.1, 36.2 (2×), 35.8, 23.8, 23.5, 25.8% and active: 8.64%, 9.18%"
same,growth,T-47D breast; runs of 2017,"inactive: 28.2 (2×), 30.8, 21.7 (2×), 29.8, 36, 23.8 (2×), 32.9, 19, 22, 27.5, 21.4, 19.6, 30.1, 24, 29.4, 34.7, 26.7, 25.1 (2×), 23.7, 20.8, 22.4 (2×), 12.7, 26.1, 23.4, 21, 24.4 (2×), 26 (2×), 18.6, 26.3, 24.5, 27.2, 17.8 (2×), 24.2, 27.7, 19.9 (3×), 21.5, 22.2, 15.9, 22.1, 16.2, 23.1, 30.7, 17.2, 14.1, 22.3, 16.5, 12.9, 22.9, 17.7, 16.9, 16.6, 27.4, 24.9, 18.9, 21.6, 32.5, 35.3, 28.9, 25, 33, 34.3, 35, 37.4, 32.7, 31.1, 20.5, 22.8% and active: 7.87%"
